Broadly, the inhibition is the drop in the measured response relative to a control, in per cent.

Consider 96 compounds from PubChem BioAssay AID485344 (National Center for Advancing Translational Sciences (NCATS), 2010).

Molecules are shown by their SMILES. Values joined by “and” are separate entries in the source; they are usually repeats but may differ in a detail not shown here. Equal values may be shown once. About 6,900 (2%) of roughly 340,000 compounds were called active. Rule as the data show it: active = inhibition above about 30%; inactive = below that, where a call was filed. This is a selection; strong and weak results do not stand in their true shares. Where no call is shown, the source filed none.

In the assay the target is D(2) dopamine receptor (Homo sapiens) (UniProt P14416). Briefly: HTS Assay for Allosteric Antagonists of the Human D2 Dopamine Receptor: Primary Screen for Antagonists. Also: 0% is about no effect. Conditions: HEK293 TREx D2 cells, calcium flux, dopamine EC80; at 10 µM; stronger effect = higher value. In outline: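 Tetracycline-induced HEK293 TREx cells expressing D2 receptor forced-coupled to calcium signalling, loaded with no-wash calcium dye. Compounds added and calcium flux read 180 s, then dopamine added at EC80 and read a further 180 s.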
UniProt P14416, sequence (P14416 whole entry, looked up): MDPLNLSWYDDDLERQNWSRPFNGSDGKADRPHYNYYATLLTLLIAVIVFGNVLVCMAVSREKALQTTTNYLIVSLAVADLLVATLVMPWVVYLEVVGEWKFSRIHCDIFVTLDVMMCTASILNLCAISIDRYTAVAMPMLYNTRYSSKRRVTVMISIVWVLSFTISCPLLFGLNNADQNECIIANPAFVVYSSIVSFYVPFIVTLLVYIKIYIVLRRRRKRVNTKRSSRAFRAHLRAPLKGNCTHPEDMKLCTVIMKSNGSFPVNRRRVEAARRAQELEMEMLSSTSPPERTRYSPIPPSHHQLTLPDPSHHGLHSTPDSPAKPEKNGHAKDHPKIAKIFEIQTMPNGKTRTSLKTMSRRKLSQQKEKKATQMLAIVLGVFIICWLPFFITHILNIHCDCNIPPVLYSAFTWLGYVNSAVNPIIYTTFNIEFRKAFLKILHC
For orientation: Calcium assays in cells follow changes in intracellular calcium, usually with a dye or a luminescent sensor.
Take `Cc1ccc(C(C)(C)C)c(OCCCCN2CCCC2)c1`: the inhibition is active: 31%.
In the case of `Cc1[nH]c2ccccc2c1C(=O)CN1CCN(C/C=C/c2ccccc2)CC1`, the inhibition is active: 80.3%.
Next, `COc1ccc(CNC(=O)Cn2ccc3cc(S(=O)(=O)N4CCCCCC4)ccc32)cc1OC`: 6.19%; `COc1cccc(-c2cn3c(n2)sc2cc(C(=O)NCc4cccs4)ccc23)c1`: -3.25%.
Turning to `CCOCCCNC(=O)C(c1ccc(OC)cc1)N(Cc1cccs1)C(=O)c1ccc(NC(C)=O)cc1` (stereo unspecified), the inhibition is -2.32%.
Next, `Oc1cccc(C(Nc2ccccn2)c2ccc3cccnc3c2O)c1Cl` (stereo unspecified): 1.22%; `Fc1cccc(-c2nc(-c3ccncc3)no2)c1`: 4.6%.
Turning to `Cc1ccc(C(=O)c2oc3ccccc3c2NC(=O)c2cc(=O)c3ccccc3o2)cc1`, the inhibition turned out to be 2.63%.
Consider `Cc1ccc(C)c(Cn2c(=O)c3c(nc4n3CCN4c3ccc(F)cc3)n(C)c2=O)c1`, for which the inhibition was determined as 1.7%.
Regarding `CCOC(=O)c1c(C)[nH]c(CCC(=O)NCCCN2CCN(c3cccc(Cl)c3)CC2)c1C`, the inhibition was -12.7%.
Take `CCOc1ccc(-n2c(Cc3ccccc3)nnc2SCc2nc(-c3ccccc3C)no2)cc1`: the inhibition amounted to 8.88%.
Under `CCOc1ccc2ccccc2c1/C=N\NC(=O)c1ccc([N+](=O)[O-])cc1` stands active: 39.5%.
For the compound `CC(=O)NCCNC(=O)CCCc1nnc2n(CCC(C)C)c(=O)c3sccc3n12`, the inhibition was 2.4%.
As to `Cc1ccc(NC(=O)C(=O)NCC(c2cccnc2)N2CCOCC2)cc1C` (stereo unspecified), the inhibition was -12.7%.
Consider `CCc1ccc(OC(=O)CSc2nnc(-c3ccc4c(c3)OCO4)o2)cc1`, for which the inhibition was -9.94%.
As to `O=C(NC1CCCC1)c1c[nH]c2ccc(S(=O)(=O)Nc3cccc(C(F)(F)F)c3)cc2c1=O`, the inhibition is 7.25%.
For `CC(=O)OCC#CCSc1nnc(-c2cccc(Br)c2)o1`, the inhibition was determined as 3.65%.
Next, `CCOC(=O)c1c(C)oc2nc(C)nc(NCC3CCN(Cc4ccc(Cl)cc4)CC3)c12`: -1.37%; `CCN(c1ccccc1)S(=O)(=O)c1nnc(NC(=O)COc2ccc(OC)cc2)s1`: 9.16%.
With `COCCNC(=O)C1CCN(S(=O)(=O)c2ccc3c(c2)CCCN3C(C)=O)CC1`, the inhibition came to 11.1%.
Consider `CCOC(=O)c1[nH]c(C)c(CCC(=O)N2CCN(c3ccccc3)CC2)c1C`, for which the inhibition is -0.965%.
Under `COc1ccc(-c2nc3n(n2)C(c2ccc(OC)cc2)C(C(=O)Nc2cccnc2)=C(C)N3)cc1` (stereo unspecified) stands 7.48%; under `O=c1[nH]c(Nc2ccc3c(c2)OCCO3)nnc1Cc1ccccc1`, active: 48.6%; under `CCOc1ccc(N2CC(c3nc(-c4cc(OC)c(OC)c(OC)c4)no3)CC2=O)cc1` (stereo unspecified), 3.21%.
Next, `CCOc1ccc(N(C)S(=O)(=O)c2ccc3c(c2)C(C)(C)C(=O)N3C)cc1`: -7.55%; `Cn1c(=O)oc2cc(S(=O)(=O)CCC(=O)NCc3ccccc3)ccc21`: 2.33%; `Cc1ccc(C)c(NC(=O)C2CCCN(S(=O)(=O)c3c(C)noc3/C=C/N(C)C)C2)c1` (stereo unspecified): -14.5% and active: 36.8%.
Take `COc1ccc(CSc2nc3ncccc3[nH]2)cc1`: the inhibition was -5.2%.
Turning to `Cc1ccc(-n2nnc3c(sc4nc(C)c(C)cc43)c2=O)cc1Cl`, the inhibition was found to be 11.9%.
Under `COc1ccc(-c2c(C)[nH]n3c(=O)c(Cc4ccccc4)c(C)nc23)cc1` stands active: 31.2%; under `COc1ccc(Cl)cc1NC(=O)CCc1nc(-c2ccccc2F)no1`, -6.97%.
Turning to `O=C(Cn1c(=O)n(Cc2ccc3c(c2)OCO3)c(=O)c2ccccc21)Nc1cccc(Cl)c1`, the inhibition was -2.08%.
Next, `Cc1c(C(=O)N2CCCC2)oc2c1-c1nn(CC(=O)NCc3cccc(Br)c3)cc1CC2`: -4.11%; `NS(=O)(=O)c1ccc(NC(=O)CCn2c(=O)oc3ccccc32)cc1`: 15.4%.
With `O=C(C1CCC(CNS(=O)(=O)c2ccc(Br)s2)CC1)N1CCN(c2ccccc2)CC1` (stereo unspecified), the inhibition is -8.74%.
`Cc1nnc(SCc2cc(=O)n3c(C)cccc3n2)s1`: the inhibition was -23.1%.
Turning to `COc1ccc(-n2ncc3c(N4CCN(c5cccc(C)c5)C(C)C4)ncnc32)cc1` (stereo unspecified), the inhibition is 5.07%.
For `Clc1cccc(CNc2ncnc3c2nc2n3CCCC2)c1`, the inhibition was -10.9%.
`CCOc1ccc(Cn2c(=O)oc3ccccc32)cc1`: the inhibition worked out at 17.6%.
Turning to `Cc1oc2c(C)c(O)ccc2c(=O)c1-c1ccc2ccccc2n1`, the inhibition was active: 43.9%.
Under `Cc1ccc(-c2noc(COc3ccc(Br)c(C)c3)n2)cc1` stands -12.7%.
Consider `O=C(CCN1CCN(c2ccccc2F)CC1)Nc1ccccc1F`, for which the inhibition was active: 86.4%.
As to `O=C1CC(c2nc3ccccc3n2CCCCOc2ccccc2)CN1c1ccccc1Cl` (stereo unspecified), the inhibition was -4.49%.
Consider `CCc1nnc(NC(=O)CSc2nc3c([nH]c4ccccc43)c(=O)n2-c2cc(C)cc(C)c2)s1`, for which the inhibition is -0.681%.
Regarding `CC1CCCCN1Cc1c(O)ccc2c(=O)c(-c3cccc(Cl)c3)c(C(F)(F)F)oc12` (stereo unspecified), the inhibition is 13.1%.
Under `O=C(NCCc1ccccc1)c1ccc2c(c1)N(Cc1ccccc1Cl)C(=O)c1ccccc1S2` stands 14.7%; under `COc1ccc(-c2nc3scc(CCNS(=O)(=O)c4ccc(F)cc4F)n3n2)cc1OC`, 8.71%.
Under `Cc1ccc(C)c(NC(=O)CCN2CCc3ccccc3C2)c1` stands active: 31.3%; under `CC(C)NC(=O)Nc1ccc2c(c1)N(C)C(=O)c1ccccc1S2`, -9.81%.
In the case of `COc1ccccc1CNC(=O)C(Cc1ccccc1)NS(=O)(=O)c1ccc2c(c1)oc(=O)n2C` (stereo unspecified), the inhibition is -8.87%.
For the compound `CN1CCN(c2nc(NCc3ccco3)nc(N)c2[N+](=O)[O-])CC1`, the inhibition is active: 77.2%.
Take `Cc1ccc(-c2nc3c(c(SCC(=O)N4CCCCC4)n2)Cc2cc(C)ccc2O3)cc1`: the inhibition is -4.68%.
For the compound `CCc1ccc(-c2nc(CSCC(=O)NCc3ccccc3OC)c(C)o2)cc1`, the inhibition is 9.99%.
Turning to `CCn1c(CNC(=O)c2ccc(OC)cc2)nnc1SCC(=O)Nc1ccc(OC)cc1`, the inhibition was -8.21%.
For `Cc1ccccc1CNC(=O)C(C)n1nc(C)n2c(cc3occc32)c1=O` (stereo unspecified), the inhibition is -5.66%.
Under `COc1ccc(CC(=O)Nc2nc3c(s2)CC(C(C)(C)C)CC3)cc1` (stereo unspecified) stands -10.3%; under `COc1ccc(NC(=O)C2=CC(c3cccs3)=NS(=O)(=O)N2C)cc1`, -19.1%; under `Cc1ccc(NC(=O)CN2C(=O)CCSc3ccc(S(=O)(=O)N4CCCC4)cc32)cc1`, -7.73%.
As to `COc1ccc(CCN=CC2=C(O)CC(C)(C)CC2=O)cc1`, the inhibition is active: 31.4%.
As for `CCOC(=O)c1ccc(CN(Cc2ccccc2)S(=O)(=O)c2ccc(C)cc2)cc1`, the inhibition is -2.8%.
Take `COc1ccc(CCC(=O)NC2CC(=O)N(c3ccc(C)cc3)C2)cc1` (stereo unspecified): the inhibition was -1.88%.
As for `Cc1cccc(C(=O)Nc2ccc(-c3nc4ccccc4s3)cc2Cl)c1`, the inhibition amounted to 11.1%.
For `CCCCNC(=O)C(CC)Sc1nnc(-c2cccc(F)c2)c(-c2cccc(F)c2)n1` (stereo unspecified), the inhibition is 2.32%.
In the case of `COc1ccc2oc(=O)cc(CN3CCN(c4ccc(F)cc4)CC3)c2c1`, the inhibition is -13.9%.
In the case of `CCCCOC(=O)c1ccc(Nc2ncnc3[nH]ncc23)cc1`, the inhibition was -13.6%.
`CC(=O)Nc1c(C)nn(-c2ccccc2)c1N1CCC(C(=O)NCc2ccc(Cl)cc2)CC1`: the inhibition is -1.53%.
Under `Cc1cc(C)cc(N2CC(c3nc(-c4ccccc4C)no3)CC2=O)c1` (stereo unspecified) stands 7.02%; under `Cc1cccc(NC(=O)Cn2c(=O)n(-c3ccccc3Cl)c(=O)c3c(C)c(C(=O)N(C)C)sc32)c1`, 8.48%.
For the compound `CCOC(=O)c1ccc(NC(=O)CN(c2ccc(C)cc2)S(=O)(=O)c2c(C)noc2C)cc1`, the inhibition was 0.978%.
Consider `Cc1nc2c(C(=O)NCCc3ccc(Cl)cc3)cnn2c(C)c1Cc1c(F)cccc1Cl`, for which the inhibition is -0.742%.
Regarding `O=C(NCc1ccccc1Br)c1ccc2nc(N3CCCCC3)sc2c1`, the inhibition came out at 2.51%.
Next, `CC(C)CNC(=S)NC1CC2CCC(C1)N2Cc1ccccc1` (stereo unspecified): active: 89.9%; `CC(Nc1ccc(-c2nc(-c3ccncc3)no2)cc1[N+](=O)[O-])c1ccccc1` (stereo unspecified): -4.42%.
As to `CCCCN(CCCC)C(=O)CN(C)S(=O)(=O)c1ccc2c(c1)c(=O)n(C)c(=O)n2C`, the inhibition was -5.2%.
Next, `Cc1sc2c(c1C)c(=O)n(CCc1ccccc1)c(=O)n2Cc1cccc(F)c1`: -18.2%.
As to `O=C(C1CCC1)N1CCc2cc(S(=O)(=O)NCCN3CCN(c4ccccc4F)CC3)ccc21`, the inhibition was active: 52.7%.
For `COc1cccc(NC(=S)N(CCCN2CCC(C)CC2)Cc2cccs2)c1`, the inhibition is active: 59.1%.
For the compound `Cc1ccc(-n2c(=O)c3c(c4cc(C)ccc4n3C)n(CC(=O)NCc3ccccc3Cl)c2=O)cc1`, the inhibition is -14.2%.
Turning to `O=C(Nc1cc(F)ccc1F)C1CCN(c2nc3ccccc3n3cccc23)CC1`, the inhibition turned out to be 0.917%.
Consider `CC1(C)CSC(=NCc2ccccc2)N1C(=O)c1cccc([N+](=O)[O-])c1`, for which the inhibition is active: 54.1%.
Turning to `COc1cc(CNCc2ccc(OC)c3ccccc23)cc(OC)c1OC`, the inhibition is active: 33%.
`CC(=O)NCCNC(=O)CCCc1nnc2n(C)c(=O)c3sccc3n12`: the inhibition was found to be 4.51%.
For the compound `CC(C)(C)C(=O)/C=c1\s/c(=C\c2ccc(-c3ccc([N+](=O)[O-])cc3)o2)c(=O)n1CC(=O)NC(N)=O`, the inhibition was active: 90.9%.
Consider `COc1ccc(CNC(=O)c2cc3cc(C)ccc3n2C)cc1`, for which the inhibition was 3.51%.
Take `Cc1ccc(SC[C@H](c2ccccc2)N2CCN(C)CCC2=O)cc1`: the inhibition was active: 37.6%.
Consider `O=C(NCc1cccs1)c1ccc2c(c1)N(Cc1ccccc1Cl)C(=O)c1ccccc1S2`, for which the inhibition was determined as 0.361%.
Take `COc1ccc(-c2cc3nc(C)c(CCC(=O)N4CCN(c5cccc(Cl)c5)CC4)c(C)n3n2)c(OC)c1`: the inhibition was 1.46%.
Turning to `Cc1ccccc1-c1ncnn1-c1sc2c(c1C#N)CCCCC2`, the inhibition stood at 9.47%.
Under `COc1ccc(-c2cc(C(=O)OCC(=O)c3ccc(C)cc3)c3cccc(Cl)c3n2)cc1` stands -6.48%.
On to `CC(C)Cn1c(=O)c2ccccc2n2c(CCC(=O)NCc3ccccc3Cl)nnc12`, for which the inhibition is -9.99%.
Next, `COc1ccc(NC(=O)Cn2c(=O)n(-c3ccccc3)c(=O)c3c4c(sc32)CCCC4)cc1`: 1.73%.
As to `Cc1cc(C)cc(Nc2cc(-c3ccccc3)nc(C)n2)c1`, the inhibition turned out to be 2.33%.
With `CCCCN(C)c1nnc(NC(=O)Nc2cccc(C(C)=O)c2)s1`, the inhibition turned out to be 9.55%.
On to `Cc1ccc(NC2=CC(c3ccccc3F)N(c3ccc(C)cc3)C2=O)cc1` (stereo unspecified), for which the inhibition is -7.83%.
For `C=CCOC(=O)C1=C(C)OC(N)=C(C#N)C1c1c(C)nn(-c2ccccc2)c1Cl` (stereo unspecified), the inhibition is active: 44%.
On to `O=S(=O)(c1ccccc1)c1nnn2c1nc(NCc1cccs1)c1sccc12`, for which the inhibition came to 7.58%.
